# Laboratory results reported in publication PMC4336329 (PLoS ONE, 2015).
# Screen size: about 310,000 compounds; about 14,000 (4.5%) showed an effect of 50% or more. The effect is printed as a negative number. The list shows a part of the results.
# Molecular target: human ether-à-go-go-related gene (hERG) potassium channel (human, UniProt Q12809)
# Test: primary screen, population patch clamp on CHO cells stably expressing hERG
# 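Note: peak tail current of the secondary pulse compared with the same well before compound.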
# human ether-à-go-go-related gene (hERG) potassium channel, sequence (Q12809 whole entry, looked up): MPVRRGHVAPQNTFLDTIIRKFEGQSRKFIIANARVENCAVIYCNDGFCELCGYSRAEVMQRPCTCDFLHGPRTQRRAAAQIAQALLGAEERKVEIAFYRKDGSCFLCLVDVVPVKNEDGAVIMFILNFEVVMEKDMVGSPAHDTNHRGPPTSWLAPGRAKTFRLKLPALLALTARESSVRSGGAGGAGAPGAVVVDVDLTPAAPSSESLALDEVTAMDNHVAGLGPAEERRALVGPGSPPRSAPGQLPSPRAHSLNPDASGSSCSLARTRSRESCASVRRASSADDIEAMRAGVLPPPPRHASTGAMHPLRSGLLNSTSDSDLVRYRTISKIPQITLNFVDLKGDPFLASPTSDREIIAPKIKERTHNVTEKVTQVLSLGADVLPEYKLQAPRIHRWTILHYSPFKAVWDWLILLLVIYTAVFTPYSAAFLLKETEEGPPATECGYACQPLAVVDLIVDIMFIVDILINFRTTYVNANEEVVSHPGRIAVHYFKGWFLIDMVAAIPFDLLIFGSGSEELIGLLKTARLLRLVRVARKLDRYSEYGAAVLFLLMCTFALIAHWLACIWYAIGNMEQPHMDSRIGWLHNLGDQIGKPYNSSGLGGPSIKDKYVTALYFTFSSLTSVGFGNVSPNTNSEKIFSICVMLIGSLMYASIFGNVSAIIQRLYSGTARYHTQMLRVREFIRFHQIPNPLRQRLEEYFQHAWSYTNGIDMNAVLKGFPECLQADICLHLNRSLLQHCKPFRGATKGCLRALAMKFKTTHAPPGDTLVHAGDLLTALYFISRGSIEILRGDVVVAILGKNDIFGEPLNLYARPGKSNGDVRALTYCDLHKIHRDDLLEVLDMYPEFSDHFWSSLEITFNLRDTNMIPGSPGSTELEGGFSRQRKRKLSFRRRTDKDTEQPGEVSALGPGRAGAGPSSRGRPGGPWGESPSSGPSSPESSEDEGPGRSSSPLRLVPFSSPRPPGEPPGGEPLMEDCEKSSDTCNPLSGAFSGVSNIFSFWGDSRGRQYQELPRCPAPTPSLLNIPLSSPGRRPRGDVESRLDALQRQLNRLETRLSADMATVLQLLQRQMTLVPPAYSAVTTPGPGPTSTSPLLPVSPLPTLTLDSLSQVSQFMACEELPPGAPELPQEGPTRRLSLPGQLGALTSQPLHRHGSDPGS
row,Structure (SMILES),"hERG current change (%, negative = inhibition) at 10uM"
1,CCc1c(O)nc(SCc2nc3ccccc3c(=O)[nH]2)[nH]c1=O,25.3%
2,CCN(c1ccccc1)S(=O)(=O)c1ccc(C(=O)N2CC(C)CC(C)C2)cc1 (centres unmarked),-30.3%
3,CCN(CC)c1ccc(/C=N/n2nnnc2N)c(O)c1,14.6%
4,O=C(Cc1ccccc1)N/N=C/c1ccccn1,14.7%
5,COCCN(C(=O)Cc1ccc(OC)c(OC)c1)c1nc(-c2cc(OC)ccc2OC)cs1,19.8%
6,O=C(Cc1cccc2ccccc12)Nc1cc(Cl)ccc1C(=O)O,15.7%
7,Cc1ccc(S(=O)(=O)CCc2nnc(N)s2)cc1C,9.4%
8,CC(C)OC(=O)Cn1c(-c2ccccc2)c(-c2ccccc2)nnc1=O,5.82%
9,C=CCc1ccccc1OCC(O)CN1C(=O)c2ccccc2C1=O (centres unmarked),-27.2%
10,CC1Cc2ccccc2N1C(=O)c1cnc2sccn2c1=O (centres unmarked),14.4%
11,CCC1CCc2sc(C(=O)NCC3CCCO3)cc2C1 (centres unmarked),-12.1%
12,Cc1ccc2nc(-c3ccc(NC(=O)CN(C)S(=O)(=O)c4ccccc4)cc3)sc2c1,12.4%
13,CNC(=O)CSc1nnnn1-c1ccc2c(c1)OCCO2,-0.372%
14,O=C1CSC(=S)N1CC1CCCO1 (centres unmarked),1.13%
15,Cc1cc(C)c(C)c(OC(=O)c2sc(Cl)nc2C)c1,-13.3%
16,CCN(CC(=O)Nc1ccc(OC)cc1)C(=O)CSCC(=O)Nc1cc(C)on1,8.75%
17,COc1ccc2sc3ccccc3c(=O)c2c1,-10.1%
18,Cc1cccc(C)c1NC(=O)c1sc(Cl)nc1C,-5.97%
19,CCCn1cc2c(c1-c1ccc(C)cc1)c(=O)n(C)c(=O)n2C,-6.72%
20,Cc1cc(=O)[nH]c(/N=C(\N)Nc2ccc(SC(F)F)cc2)n1,-15.8%
21,CCN(CC(=O)Nc1c(F)cccc1F)C(=O)C1CC1C (centres unmarked),1.31%
22,O=C(COC(=O)c1ccc2c(c1)S(=O)(=O)c1ccccc1C2=O)NC1CC1,-1.44%

row,Structure (SMILES),"hERG current change (%, negative = inhibition) at 10uM"
1,O=C1NC(C(=O)O)=CC(c2cccc(Cl)c2Cl)N1 (centres unmarked),12.8%
2,CCN(CC)S(=O)(=O)c1cccc(C(=O)NC(C(=O)Nc2nnc(C)s2)C(C)C)c1 (centres unmarked),-3.34%
3,CCn1cc(C(=O)OCC(=O)c2cc(C)n(-c3ccccc3)c2C)c(=O)c2ccc(C)nc21,6.93%
4,CCCC(=O)Nc1ccc(C(=O)NNC(=S)NC(=O)c2ccc(Br)o2)cc1,13.5%
5,N#Cc1ccc(C(=O)Nc2cc(S(=O)(=O)Nc3ccc(Cl)cc3)ccc2N2CCCCC2)cc1,6.46%
6,COC(C(=O)Nc1ccnn1C1CCN(C(=O)c2cccc(F)c2)CC1)c1ccccc1 (centres unmarked),8.16%
7,Cc1cccc(NS(=O)(=O)c2cccc(C(=O)N3CCN(C/C=C/c4ccccc4)CC3)c2)c1,-18.4%
8,Cc1nnc(Oc2ccccc2)c2ccccc12,-4.82%
9,O=C(Cc1ccc(Br)cc1)Nc1ccc(S(=O)(=O)Nc2ncccn2)cc1,18.7%
10,Cc1ccc(C(=O)N2CCN(c3ccc(NC(=S)NC(=O)Cc4ccccc4)cc3)CC2)cc1,-17.1%
11,COc1ccc(S(=O)(=O)N2CCN(C(=S)NC3CCCCC3)CC2)cc1,8.69%
12,CC(=O)N[C@H](Cc1c[nH]c2ccccc12)C(=O)O,9.29%
13,Cc1nc(NCCc2ccccc2)c2nnn(Cc3ccccc3)c2n1,20.7%
14,CC(Nc1nc(-c2ccc(F)cc2)cs1)c1nc2cc(Cl)c(N3CCCCC3)cc2n1CCCO (centres unmarked),7.15%
15,OCCCNc1nc(-c2ccc(Br)cc2)nnc1-c1ccc(Cl)cc1,-52.3%
16,COc1ccc(OC)c(/C=N/N2CCN(c3ccc(Cl)cc3)CC2)c1,8.58%
17,CC1SCC(=O)N(CC(=O)Nc2ccc3c(c2)OCCO3)C1=O (centres unmarked),-0.177%
18,CCOc1ccc(C(C)C)cc1S(=O)(=O)Nc1ccc(Cl)cn1,13.6%
19,CC1COC(Cn2c3ccccc3c3ccccc32)O1 (centres unmarked),8.06%
20,COc1ccc(CCC(C)NC(=O)CCc2ccccc2)c(OC)c1 (centres unmarked),-26.8%
21,CC(CCC(=O)O)C1CC[C@@]2(C)C3C(=O)CC4C(C)(C)C(O)CC[C@]4(C)C3C(=O)C[C@]12C (some centres unmarked),20.6%
22,CS(=O)(=O)N1CCc2cc(C(=O)Nc3cccc([N+](=O)[O-])c3)ccc21,13.6%

row,Structure (SMILES),"hERG current change (%, negative = inhibition) at 10uM"
1,COc1cc(NC(=O)c2ccc(Cl)cc2)c(OC)cc1NC(=O)CN1CCOCC1,-21.4%
2,COc1ccc(OC)c(-n2c(-c3cccc(C)c3)n[nH]c2=S)c1,10.8%
3,Cc1nn(-c2ccccc2)c2c1C(c1cccs1)C(C#N)=C(N)O2 (centres unmarked),10.3%
4,COc1cc(NC(=O)c2cc(C)on2)cc(C(=O)Nc2cccc(C(F)(F)F)c2)c1,-9.7%
5,CN1CC(c2ccc(Cl)c(Cl)c2)[C@@]2(COc3ccccc3C2=O)[C@@]12C(=O)Nc1ccccc12 (some centres unmarked),11%
6,Cn1c(N2CCN(C(=O)NC34CC5CC(CC(C5)C3)C4)CC2)nc2ccccc21,23.2%
7,COc1ccc(C(=O)OCC(=O)Nc2ncc([N+](=O)[O-])s2)cc1OC,8.67%
8,Cc1cc(C)cc(OCc2nnc(SCC(=O)c3ccccc3)o2)c1,13.8%
9,O=C(Cn1cnnn1)NCCc1ccc(Cl)cc1Cl,-19.6%
10,Cc1cc(C)c(C(=O)/C=C/c2ccc(C(C)C)cc2)c(=O)[nH]1,10%
11,CCCOc1ccc(N2C(=O)CC(N(Cc3ccc(OC)cc3)C(=S)Nc3ccccc3)C2=O)cc1 (centres unmarked),-6.22%
12,CSCCC(NC(=O)C1CCC(C)CC1)C(=O)Nc1ccc(NC(C)=O)cc1 (centres unmarked),-6.02%
13,Cn1nnc2sc3c(c2c1=O)CCCC3,15.3%
14,CN1CCN(c2c(/C=N/O)c3ccccc3n2C)CC1,-51.5%
15,O=C(c1cccs1)N1N=C(c2ccccc2)CC1c1ccc(O)cc1 (centres unmarked),14.7%
16,CCOc1ccc(NC(=O)CSc2nnnn2-c2ccc(C(N)=O)cc2)cc1,20.7%
17,CCS(=O)(=O)N1CCC(C(=O)Nc2ccc(C(C)=O)cc2)CC1,10.9%
18,CC1(C)OC2CC3C4CC(F)C5=CC(=O)C=CC5(C)C4(F)C(O)CC3(C)C2(C(=O)CO)O1 (centres unmarked),-7.01%
19,CCOC(=O)[C@@H]1CCNC[C@@H]1c1ccccc1.Cl,13%
20,CCN(CC)S(=O)(=O)c1ccc(C)c(NC(=O)CSc2nc3ccc(C)cc3[nH]2)c1,-1.14%
21,Cc1ccc(N(CC2CO2)S(=O)(=O)c2ccc([N+](=O)[O-])cc2)cc1 (centres unmarked),-69.3%
22,Cc1ccc(C(=O)Nc2ccccc2N2CCN(C(=O)C(C)C)CC2)cc1C,-18.7%

row,Structure (SMILES),"hERG current change (%, negative = inhibition) at 10uM"
1,CCN(CC)C(=O)CSc1nc2ccccc2c(=O)n1CCC(=O)NCCc1ccc(OC)c(OC)c1,-11.6%
2,COc1ccc(N2C(=O)c3ccccc3S2(=O)=O)cc1,0.492%
3,COc1ccc(OC)c(CNn2c(-c3ccccc3F)nc3ccccc3c2=O)c1,-16.5%
4,O=C(NCC1CCCO1)c1ccc(Oc2ccc([N+](=O)[O-])cc2Cl)cc1 (centres unmarked),-41.6%
5,Cc1oc(-c2cccc(Cl)c2)nc1CN1CCCC(C(=O)NCc2ccco2)C1 (centres unmarked),-73%
6,C=CCNC(=O)COc1ccc(N(C)S(=O)(=O)c2ccc(NC(C)=O)cc2)cc1,6.61%
7,C[C@@]12CCC3[C@@](CCC4[C@@]3(C)CCC[C@@]4(C)C(=O)N3CCCCC3)(CC1=O)C2 (some centres unmarked),7.27%
8,Cc1cc(C)n(C(=O)COc2c(C)cccc2C)n1,11%
9,CC/C(=N\O)C(C)(C)/[N+]([O-])=C/c1ccc(Br)cc1,5.28%
10,COc1ccc(C(=O)NC2CCc3ccccc32)cc1OC1CCN(C(C)=O)CC1 (centres unmarked),-0.012%
11,COc1ccc(Nc2cc(=O)oc3ccccc23)cc1,4.33%
12,COc1ccc(NC(=O)COc2ccc(N(C)S(=O)(=O)c3ccc(Cl)cc3)cc2)cc1,5.33%
13,CCCNC(=O)C1CCN(S(=O)(=O)c2ccc(-c3nn[nH]n3)cc2)CC1,1.91%
14,O=C(Nc1ccc2c(c1)OCO2)N1CCN(Cc2ccco2)CC1,6.32%
15,Cc1cccc(N2C(=O)NC(=O)/C(=C\c3cnc(-c4ccccc4)nc3)C2=O)c1,-3.11%
16,CC(C)(C)[C@@H]1CCC(=O)N(CC[C@H](Sc2ccccc2)c2ccccc2)CC1,17.1%
17,O=S(=O)(c1ccc(Cl)c(NC(=S)N/N=C/c2c(F)cccc2F)c1)N1CCOCC1,18.1%
18,COCCCN1C(=O)C(=O)/C(=C(/O)c2ccc(S(=O)(=O)N3CCOCC3)cc2)C1c1ccc(Cl)cc1 (centres unmarked),14.6%
19,COc1ccccc1N1CCN(C(=O)CCS(=O)(=O)c2ccc3c(c2)oc(=O)n3C)CC1,2.61%
20,C[C@]1(OC(=O)/C=C/c2ccccc2)C[C@@H](O)[C@]2(O)C=CO[C@@H](O[C@@H]3O[C@H](CO)[C@@H](O)[C@H](O)[C@H]3O)[C@@H]21,1.84%
